Data reported in a collection of fitness landscapes (doi:10.1016/j.celrep.2020.107928).
In all, about 81,000 sequences were measured (“one-hybrid fitness for binding parS DNA”: median about -0.17, highest 2% from about 0.51 on). This is one part of the list.

B1: Caulobacter ParB omega fusion; a variant is named by its letters at X, in order, B8GW30 (parent)
chain: MESVVVGEPGMSEGRRGLGRGLSALLGEVDAAPAQAPGEQLGGSREAPIEILQRNPDQPRRTFREEDLEDLSNSIREKGVLQPILVRPSPDTAGEYQIVAGERAWRAAQRAGLKTVPIMVRELDDLAVLEIGIIENVQRADLNVLEEALSYKVLMEKFERTQENIAQTIGKSXSHVANXMRLLXLPDEVQSYLVSGELTAXHARAIAAAADPVALAKQIIEGGLSVRETEALARKAPNLSAGKSKGGRPPRVKDTDTQALESDLSSVLGLDVSIDHRGSTGTLTITYATLEQLDDLCNRLTRGI

Variants of: B1
Test: one-hybrid fitness for binding parS DNA (scaled: cognate 1, non-cognate 0); higher = stronger binding
Details: with parS DNA site
Method in brief: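 Values were rescaled so that cognate is 1 and non-cognate is 0. Each is a fitness, the log change in a variant's read ratio to wild type from Illumina reads of plasmids before and after selection, with three replicate libraries pooled and variants under 10 reads dropped. Selection of the Caulobacter ParB libraries, four specificity codons randomised, used E. coli USO with a HIS3 reporter, site 19 bp from the promoter, on M9-minus-histidine with 0.1 mM IPTG and 5 mM 3-AT for 48 hours at 37°C.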

Variant | one-hybrid fitness for binding parS DNA
QKHG | ≤ 0.2
WAVQ | ≤ 0.2
SDAN | ≤ 0.2
YLPH | ≤ 0.2
HMFL | ≤ 0.2
EKLL | ≤ 0.2
GCCR | ≤ 0.2
SVTS | ≤ 0.2
GWKT | ≤ 0.2
NLPE | ≤ 0.2
SLAK | ≤ 0.2
ANKV | ≤ 0.2
RIGY | 0.51
RLAA | 0.582
GSCF | ≤ 0.2
PLSS | ≤ 0.2
GVDD | ≤ 0.2
RKWE | ≤ 0.2
ARTR | ≤ 0.2
TKSW | ≤ 0.2
LKLR | ≤ 0.2
YIPD | ≤ 0.2
TIPK | ≤ 0.2
LRPI | ≤ 0.2
RWGC | 0.61

Variant | one-hybrid fitness for binding parS DNA
NEER | ≤ 0.2
RFHA | 0.53
QMHG | ≤ 0.2
NSQV | ≤ 0.2
HEFP | ≤ 0.2
SGTG | ≤ 0.2
IYWG | ≤ 0.2
QYRP | ≤ 0.2
KIPT | ≤ 0.2
QTLD | ≤ 0.2
SFCL | ≤ 0.2
TVEC | ≤ 0.2
LFTP | ≤ 0.2
HMKC | ≤ 0.2
FNNV | ≤ 0.2
IFRM | ≤ 0.2
FPHM | ≤ 0.2
QFVR | ≤ 0.2
YINM | ≤ 0.2
DNAQ | ≤ 0.2
TSKG | ≤ 0.2
ACDL | ≤ 0.2
RQWP | ≤ 0.2
IAGS | ≤ 0.2
FLKE | ≤ 0.2

Variant | one-hybrid fitness for binding parS DNA
MPDR | ≤ 0.2
VYDT | ≤ 0.2
AGNF | ≤ 0.2
GPDT | ≤ 0.2
VGYE | ≤ 0.2
WLSK | ≤ 0.2
SWLF | ≤ 0.2
KGTF | ≤ 0.2
HTQV | ≤ 0.2
QWPP | ≤ 0.2
RKCH | ≤ 0.2
GHLH | ≤ 0.2
VPIW | ≤ 0.2
IETC | ≤ 0.2
QRWW | ≤ 0.2
APMF | ≤ 0.2
YRSM | ≤ 0.2
EDND | ≤ 0.2
CVPS | ≤ 0.2
FSFC | ≤ 0.2
IMPT | ≤ 0.2
KHRI | ≤ 0.2
SMIH | ≤ 0.2
HRRW | ≤ 0.2
ELDS | ≤ 0.2

Variant | one-hybrid fitness for binding parS DNA
ELLI | ≤ 0.2
ACHC | ≤ 0.2
PRSR | ≤ 0.2
VIRR | ≤ 0.2
SSKP | ≤ 0.2
WCQT | ≤ 0.2
LVLV | ≤ 0.2
NFPS | ≤ 0.2
GDDN | ≤ 0.2
THNY | ≤ 0.2
QGVV | ≤ 0.2
APDV | ≤ 0.2
HPHW | ≤ 0.2
ADYR | ≤ 0.2
QVCD | ≤ 0.2
EVVG | ≤ 0.2
NEFT | ≤ 0.2
QNQR | ≤ 0.2
PGWT | ≤ 0.2
IGNC | ≤ 0.2
TGLT | ≤ 0.2
IAGC | ≤ 0.2
VPSE | ≤ 0.2
PILG | ≤ 0.2
QHPN | ≤ 0.2

Variant | one-hybrid fitness for binding parS DNA
EDYS | ≤ 0.2
LYEP | ≤ 0.2
TSWS | ≤ 0.2
LDVY | ≤ 0.2
DQIL | ≤ 0.2
LEGG | ≤ 0.2
ADTV | ≤ 0.2
RPMG | ≤ 0.2
TLRT | ≤ 0.2
PHHG | ≤ 0.2
WCCS | ≤ 0.2
DLAA | ≤ 0.2
PDRY | ≤ 0.2
ETIQ | ≤ 0.2
KSGS | ≤ 0.2
RCFI | ≤ 0.2
CGEG | ≤ 0.2
HISC | ≤ 0.2
RLQN | 0.471
VMSL | ≤ 0.2
LRDV | ≤ 0.2
HYPV | ≤ 0.2
TMDY | ≤ 0.2
SCPE | ≤ 0.2
MDWS | ≤ 0.2

Variant | one-hybrid fitness for binding parS DNA
PRKR | ≤ 0.2
RVKG | 0.941
SGNW | ≤ 0.2
KTWM | ≤ 0.2
HDRR | ≤ 0.2
VTMA | ≤ 0.2
AYYS | ≤ 0.2
QLPI | ≤ 0.2
PRGH | ≤ 0.2
SQLD | ≤ 0.2
YVVK | ≤ 0.2
YEIR | ≤ 0.2
QGMV | ≤ 0.2
NAPF | ≤ 0.2
QHRS | ≤ 0.2
MKVK | ≤ 0.2
FRPV | ≤ 0.2
DGLS | ≤ 0.2
GEYL | ≤ 0.2
NSMM | ≤ 0.2
AASC | ≤ 0.2
GVRI | ≤ 0.2
QQHT | ≤ 0.2
YQLH | ≤ 0.2
TFNS | ≤ 0.2

Variant | one-hybrid fitness for binding parS DNA
LEAM | ≤ 0.2
VGMN | ≤ 0.2
FIRY | ≤ 0.2
KPPG | ≤ 0.2
PMHR | ≤ 0.2
VPQS | ≤ 0.2
STCR | ≤ 0.2
LLHL | ≤ 0.2
QGKW | ≤ 0.2
GWMS | ≤ 0.2
CPWG | ≤ 0.2
KPCD | ≤ 0.2
PRVG | ≤ 0.2
SSPP | ≤ 0.2
MARR | ≤ 0.2
WRLI | ≤ 0.2
SDED | ≤ 0.2
PLGP | ≤ 0.2
QETA | ≤ 0.2
VAPA | ≤ 0.2
LKAM | ≤ 0.2
NRSC | ≤ 0.2
FHES | ≤ 0.2
AWGT | ≤ 0.2
DLSR | ≤ 0.2

Variant | one-hybrid fitness for binding parS DNA
LLKK | ≤ 0.2
RVQV | ≤ 0.2
PCSP | ≤ 0.2
SPVA | ≤ 0.2
MLIL | ≤ 0.2
QLTT | ≤ 0.2
YTER | ≤ 0.2
VKGG | ≤ 0.2
GVRS | ≤ 0.2
SRQC | ≤ 0.2
LFHD | ≤ 0.2
TPDI | ≤ 0.2
HAYD | ≤ 0.2
QMHM | ≤ 0.2
VKQD | ≤ 0.2
NCYG | ≤ 0.2
HVTL | ≤ 0.2
DRPA | ≤ 0.2
YWMG | ≤ 0.2
GWAT | ≤ 0.2
